Assay results as given in the supplement of paper PMC10126150.
Values marked as one replicate rest on one cluster of the flow cell; about a third of the high ones do not repeat.

Test system: ATP
Test: switch fluorescence ratio, 500 uM ATP over buffer (Cy3 cluster intensity, sum of 5 cycles each) (fold (ratio)); higher = stronger signal-on switching upon ATP binding; sequences stand for … in TCGTCGGCAGCGTCAGATGTGTATAAGAGACAGTTTTTTTTTTTTTTTTTTTTTTTTT…TC
Settings: aptamer strand: ATP DNA aptamer (quencher-CACCTGGGGGAGTATTGCGGAGGAAGG + anchor), 100 nM annealed; ATP concentration: 500 uM; one replicate
Outline: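 Exposure to 500 uM ATP lasted 15 min at 22 °C before imaging, and a selection-buffer image was taken beforehand, for Cy3-labelled switching-strand clusters on a modified Illumina MiSeq flow-cell annealed to 100 nM quencher-labelled ATP aptamer. Five buffer/ATP cycles were run with NaOH stripping and re-annealing between them. The fluorescence ratio per cluster is summed target-cycle over summed buffer-cycle Cy3 intensity, averaged per switch-domain sequence. Clusters outside 100-1000 RFU were excluded.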

| Sequence | switch fluorescence ratio |
| --- | --- |
| GGTTCAAGC | 0.952 |
| GGTTCCAGTT | 0.937 |
| GGTTCCCGGG | 0.993 |
| GGTTCGACC | 0.999 |
| GGTTCGATAA | 1.01 |
| GGTTCGGTCT | 1 |
| GGTTCTACAA | 1.01 |
| GGTTCTGA | 1.04 |
| GGTTCTTTAT | 0.949 |
| GGTTGAAC | 0.98 |
| GGTTGAATAT | 1.03 |
| GGTTGACC | 0.963 |
| GGTTGACCTT | 1.1 |
| GGTTGCAATT | 1.39 |
| GGTTGCACCC | 1.02 |
| GGTTGCACTA | 1.02 |
| GGTTGCTGTT | 1.03 |
| GGTTGGACCG | 1.01 |
| GGTTGGACTT | 1.02 |
| GGTTGTAGTA | 0.996 |
| GGTTGTCCCG | 0.98 |
| GGTTGTGCGT | 1.01 |
| GGTTGTGTGA | 0.973 |
| GGTTGTGTGC | 1.08 |
| GGTTGTTAGA | 0.996 |
| GGTTGTTAGT | 1 |

| Sequence | switch fluorescence ratio |
| --- | --- |
| GGTTTAACAG | 0.973 |
| GGTTTACCAG | 0.999 |
| GGTTTCAAGC | 1.03 |
| GGTTTCAGGT | 1.05 |
| GGTTTGGCCT | 1.01 |
| GGTTTGTAGC | 1.03 |
| GGTTTGTCGG | 0.958 |
| GGTTTGTGTC | 0.961 |
| GGTTTTAACG | 1.04 |
| GGTTTTCAAT | 1.01 |
| GTAAAAAGCA | 0.992 |
| GTAAAATTTT | 0.992 |
| GTAAACGCCG | 1.02 |
| GTAAACTATG | 0.963 |
| GTAAAGGTAC | 1.04 |
| GTAAATCTGG | 0.993 |
| GTAAATGGGT | 0.955 |
| GTAACCCCGA | 1.06 |
| GTAACCGAAA | 1.06 |
| GTAACGAGGT | 1.02 |
| GTAACGCGGT | 1.04 |
| GTAACGGGGT | 0.991 |
| GTAACTGTAC | 1.58 |
| GTAAGAAACC | 1.14 |
| GTAAGAGG | 0.982 |
| GTAAGAGGCA | 0.964 |

| Sequence | switch fluorescence ratio |
| --- | --- |
| GTAAGATCTG | 1.01 |
| GTAAGCGATT | 1 |
| GTAAGGCATA | 1.02 |
| GTAAGGGTCC | 0.919 |
| GTAAGGGTGG | 0.988 |
| GTAATCGGAT | 0.983 |
| GTACAACGTA | 0.985 |
| GTACCATCGA | 0.983 |
| GTACCGTGCC | 1.36 |
| GTACGGAAAA | 1.01 |
| GTACGTGACG | 1.08 |
| GTACGTGCGG | 0.985 |
| GTACGTGG | 1.03 |
| GTACTCGTGG | 0.988 |
| GTACTTTCTT | 0.983 |
| GTAGAAAATT | 1 |
| GTAGAGGGAG | 0.989 |
| GTAGAGGGGT | 1.06 |
| GTAGAGGTTT | 0.971 |
| GTAGATGTAC | 1.14 |
| GTAGCAGGAT | 1.03 |
| GTAGCCTTTC | 1.49 |
| GTAGCGGGAT | 1.02 |
| GTAGCTGTTG | 0.948 |
| GTAGCTTGAC | 1.85 |
| GTAGGAAA | 1.02 |

| Sequence | switch fluorescence ratio |
| --- | --- |
| GTAGGAAACG | 1.31 |
| GTAGGAATCC | 1.1 |
| GTAGGCAAAA | 1.05 |
| GTAGGCACGC | 0.96 |
| GTAGGCCAGC | 1.01 |
| GTAGGCGTTA | 0.981 |
| GTAGGGACCT | 1.11 |
| GTAGTAAGAG | 1.13 |
| GTAGTACTT | 1.03 |
| GTAGTATGGG | 1.03 |
| GTAGTTAGCT | 0.993 |
| GTAGTTCTGT | 1.03 |
| GTATAACGTT | 0.98 |
| GTATAACTTC | 1 |
| GTATCAGGGT | 0.999 |
| GTATCAGTTT | 1.01 |
| GTATCGTCGG | 1.01 |
| GTATCTTAGT | 1.01 |
| GTATGACCGA | 0.908 |
| GTATGAGCT | 0.976 |
| GTATGATCAG | 1 |
| GTATGCAGAG | 0.931 |
| GTATGCCCCG | 1.01 |
| GTATGGAAAC | 1.01 |
| GTATGGGACT | 0.961 |
| GTATGGTGT | 0.998 |

| Sequence | switch fluorescence ratio |
| --- | --- |
| GTATGTCTGG | 0.947 |
| GTATGTGAGC | 0.972 |
| GTATGTTGTG | 0.981 |
| GTATTACTTT | 0.998 |
| GTATTAGGG | 0.964 |
| GTATTCAAAC | 0.965 |
| GTATTCATCT | 1.01 |
| GTATTCCGGT | 1.02 |
| GTATTCGCTC | 1.05 |
| GTATTCGGAT | 0.989 |
| GTATTGTAGA | 1.01 |
| GTATTTGCAA | 1.06 |
| GTCAATTG | 1.02 |
| GTCACAATG | 1.06 |
| GTCACACTGA | 1.01 |
| GTCACAGAA | 1.04 |
| GTCACGGGGC | 0.999 |
| GTCACTGTTT | 0.974 |
| GTCAGCAAGC | 3.47 |
| GTCAGCTAGT | 1.02 |
| GTCAGGCGCG | 0.989 |
| GTCATAGAAA | 0.985 |
| GTCATCAGTA | 0.975 |
| GTCATTGCTC | 1.1 |
| GTCATTTTCA | 0.976 |
| GTCCAATTTT | 1.01 |

| Sequence | switch fluorescence ratio |
| --- | --- |
| GTCCACGATG | 1.02 |
| GTCCATTTAG | 0.998 |
| GTCCCAACTT | 1.06 |
| GTCCCATGCT | 1.02 |
| GTCCCCCGTG | 2.63 |
| GTCCCGCGTC | 1.62 |
| GTCCGAAGTA | 1.3 |
| GTCCGATTGA | 0.982 |
| GTCCGTGCTG | 1 |
| GTCCTACAGT | 1 |
| GTCCTCATTT | 1.04 |
| GTCCTCGCCA | 1.45 |
| GTCCTCGGGG | 0.917 |
| GTCCTGGAGC | 1.05 |
| GTCCTTTGGC | 1.04 |
| GTCGAAAATG | 1.05 |
| GTCGACATGG | 0.935 |
| GTCGACTACG | 0.972 |
| GTCGACTTTT | 0.974 |
| GTCGAGAGGA | 0.967 |
| GTCGCAGGCT | 1.04 |
| GTCGCGAATT | 1.05 |
| GTCGCTTAAA | 0.995 |
| GTCGCTTACA | 0.995 |
| GTCGGAGGTT | 0.996 |
| GTCGGCTGC | 1.18 |

| Sequence | switch fluorescence ratio |
| --- | --- |
| GTCGGGAGAT | 0.945 |
| GTCGGGCTAA | 0.954 |
| GTCGGGTGCC | 0.987 |
| GTCGGGTTAC | 1.03 |
| GTCGGTACTG | 1.01 |
| GTCGGTCCAC | 0.976 |
| GTCGTAAGAC | 1.03 |
| GTCGTAAGGT | 0.993 |
| GTCGTAATGG | 0.968 |
| GTCGTATTC | 0.972 |
| GTCGTATTCT | 1.01 |
| GTCGTCTACA | 0.98 |
| GTCGTCTATT | 0.971 |
| GTCGTTGAAG | 0.996 |
| GTCGTTGGGG | 1.03 |
| GTCTAACAGT | 0.977 |
| GTCTAACGGC | 0.938 |
| GTCTAAGATG | 1 |
| GTCTATGCTC | 1.14 |
| GTCTCAAAGT | 0.99 |
| GTCTCAAATT | 1.02 |
| GTCTCAAGCA | 1.04 |
| GTCTCACTTG | 1.01 |
| GTCTGACCTT | 1.13 |
| GTCTGCTCTT | 1.01 |
| GTCTGGAGAC | 0.961 |

| Sequence | switch fluorescence ratio |
| --- | --- |
| GTCTGTTAAG | 1.02 |
| GTCTGTTGGC | 1.01 |
| GTCTTATTTG | 1.01 |
| GTCTTCACCG | 1.03 |
| GTGAAACGAG | 1.01 |
| GTGAAGAAAT | 1.02 |
| GTGAAGAGTT | 0.952 |
| GTGAAGGGGG | 0.969 |
| GTGAAGTTTA | 1.02 |
| GTGAATAGTA | 0.971 |
| GTGAATTGCT | 0.991 |
| GTGACCATTT | 1.01 |
| GTGACGTAGG | 1.01 |
| GTGACTAGAG | 1.05 |
| GTGACTGATC | 1.03 |
| GTGAGAAGCC | 0.971 |
| GTGAGAAGGC | 0.945 |
| GTGAGAGACC | 0.944 |
| GTGAGATATA | 1.03 |
